Laboratory results: article PMC2867956, “Interdomain Interactions Control Ca^2+-Dependent Potentiation in the Cation Channel TRPV4” (PLoS ONE, 2010)

Biological target: TRPV4-YFP, Q9HBA0
Test: FRET or BRET; acceptor photobleaching FRET of CFP- and YFP-fused full-length TRPV4 in unstimulated HEK293 cells; hypotonic medium, 4α-PMA or carbachol lowered the FRET transiently
Conditions: remark: other sources report otherwise

B1: CFP-TRPV4 (natural protein)
chain: MADSSEGPRAGPGEVAELPGDESGTPGGEAFPLSSLANLFEGEDGSLSPSPADASRPAGPGDGRPNLRMKFQGAFRKGVPNPIDLLESTLYESSVVPGPKKAPMDSLFDYGTYRHHSSDNKRWRKKIIEKQPQSPKAPAPQPPPILKV[about 250 residues left out]DTRHLSRKFKDWAYGPVYSSLYDLSSLDTCGEEASVLEILVYNSKIENRHEMLAVEPINELLRDKWRKFGAVSFYINVVSYLCAMVIFTLTAYYQPLEGTPPYPYRTTVDYLRLAGEVITLFTGVLFFFTNIKDLFMKKCPGVNSLFIDGSFQLLYFIYSVLVIVSAALYLAGIEAYLAVMVFALVLGWMNALYFTRGLKLTGTYSIMIQKILFKDLFRFLLVYLLFMIGYASALVSLLNPCANMKVCNEDQTNCTVPTYPSCRDSETFSTFLLDLFKLTIGMGDLEMLSSTKYPVVFIILLVTYIILTFVLLLNMLIALMGETVGQVSKESKHIWKLQWATTILDIERSFPVFLRKAFRSGEMVTVGKSSDGTPDRRWCFRVDEVNWSHWNQNLGIINEDPGKNETYQYYGFSHTVGRLRRDRWSSVVPRVVELNKNSNPDEVVVPLDSMGNPRCDGHQQGYPRKWRTDDAPL
Q: B1 was tested. Which FRET efficiency did it give?
A: 19.6
